In all, about 380,000 compounds went through this assay and about 170 (0.045%) were called active. Inconclusive results, whose numbers are uncertain, are shown with a selection of clear calls. Calls follow the shape of the dose curve; as a rule, active = well fitted inhibition curve with a large enough effect; inconclusive = small, poorly fitted or top-dose-only effect; inactive = no such curve, though single readings can be large or run the other way. Where the call is inconclusive, the potency comes from a doubtful curve fit.
What follows are compounds tested against Phosphoglycerate kinase, glycosomal (Trypanosoma brucei brucei) (UniProt P07378) (assay: qHTS Assay to Find Inhibitors of Phosphoglycerate Kinase). Settings: PGK/GAPDH coupled, Kinase-Glo luminescence, 60 min; series mostly up to 57.5 µM.
Outline: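 Luminescent ATP detection (Kinase-Glo Plus) follows a 60-minute room-temperature incubation, with wells lacking PGK as controls. Buffer: 100 mM TEA (pH 7.6), 5 mM MgCl2, 0.01% Tween-20. Coupling enzyme GAPDH (100 nM final) supplies unstable 1,3-BPG in-well.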
Also: nearly all actives have a fitted effect of over 60% in size.
Potency is read from the fitted curve at half-maximal effect; tags tell the direction and shape of the fitted curve.

Potency, inactive:
O=C(Nc1ccccc1F)Oc1cccc(OC(=O)Nc2ccccc2F)c1
COc1ccc(C(=O)N/N=C/c2ccc(OC)c(COc3ccccc3)c2)cc1
COc1ccc(NC(=O)c2cc(-c3ccco3)nc3ccccc23)cc1S(=O)(=O)N1CCOCC1
C=CCOc1ccc(C2NC(=S)NC3=C2CCc2ccccc23)cc1 (configuration not stated)
O=C(COC(=O)C12CC3CC(CC(Br)(C3)C1)C2)Nc1cccc(S(=O)(=O)N2CCOCC2)c1
Cc1ccc(CN(c2ccc(C(=O)N3CCc4ccccc4C3)cc2)S(C)(=O)=O)cc1
COc1cc(/C=C2/C(=O)NN(c3cccc(C)c3)C2=O)ccc1OC(=O)c1ccco1
Cn1c(=O)c(C(=O)c2ccccc2)nc2ccccc21
CCN(CC)CCNC(=O)c1ccc2c(=O)n3nc(Nc4ccccc4OC)sc3nc2c1
COc1ccc(-c2csc(NC(=O)C3CCN(C(=O)c4ccc(F)cc4)CC3)n2)cc1OC
COc1ccc(C)cc1NC(=O)CN1CCN(S(=O)(=O)c2ccc3ccccc3c2)CC1
O=C(Nc1ccccc1C(=O)O)c1cc(S(=O)(=O)NCc2ccccc2)ccc1Cl
COCCCn1c(=NC(=O)c2ccccc2)c(C#N)cc2c(=O)n3cccc(C)c3nc21

Potency, active:
Cc1ccc(NC(=O)CN2C(=O)N/C(=C/c3ccccc3OCc3cccc(C(=O)O)c3)C2=O)cc1 22.4 µM
CC(CS(=O)(=O)c1ccc2c(c1)NC(=O)CS2)C(=O)NCc1ccccc1Cl (configuration not stated) 7.94 µM

Potency, inconclusive:
Cc1occc1C(=O)Nc1ccc(OCc2ccccc2)cc1 12.6 µM [inhibitor, partial curve, poor fit]
CCOC(=O)NNc1ccc2nonc2c1[N+](=O)[O-] 39.8 µM [inhibitor, partial curve, poor fit]
COC(=O)c1sccc1NC(=O)Nc1ccc(F)cc1 17.8 µM [inhibitor, partial curve, poor fit]
CCOc1ccc(C=NNc2ccc(S(=O)(=O)Nc3ccccc3C(=O)O)cc2[N+](=O)[O-])cc1OC 7.94 µM [inhibitor, full curve, poor fit]
O=C(Cc1cccs1)OCC(=O)c1ccco1 35.5 µM [inhibitor, single point]
Cc1ccc(-n2cccc2/C=C2\C(=N)N3N=C(c4ccco4)SC3=NC2=O)cc1 10 µM [inhibitor, partial curve]
CC1=CCC(C(=O)O)C(C(=O)Nc2ccc(-c3nc4ccc(C)cc4s3)cc2)C1 (configuration not stated) 17.8 µM [inhibitor, partial curve, poor fit]
O=C(/C=C/Nc1ccccc1Br)c1ccccn1 25.1 µM [inhibitor, partial curve]
COc1cc(NC(=S)N(C)CCC#N)c(OC)cc1Cl 39.8 µM [inhibitor, single point]
Cc1ccnc(NC(=O)c2ccc(OCC3CCCO3)cc2)c1 (configuration not stated) 28.2 µM [inhibitor, partial curve]
CSc1ccc(/C=C/c2nc3ccccc3n2S(=O)(=O)c2cccc(Cl)c2)cc1 39.8 µM [inhibitor, single point]
CC(/C=C\c1cccnc1)=C/C(=O)O 35.5 µM [inhibitor, partial curve, poor fit]
N#Cc1c(SCC(=O)Nc2cccc(C(F)(F)F)c2)sc2c(O)cc(=O)[nH]c12 15.8 µM [inhibitor, partial curve, poor fit]
CON=C(C(=O)NC1C(=O)N2C(C(=O)O)=C(CSc3nc(=O)c(=O)[nH]n3C)CSC12)c1csc(N)n1 (configuration not stated) 25.1 µM [inhibitor, single point]
COc1ccc(NC(=O)CN(C)C(=O)c2cccc(-n3cccc3)c2)cc1 20 µM [inhibitor, partial curve, poor fit]
CCn1c(C)cc(C(=O)COC(=O)c2ccccc2[N+](=O)[O-])c1C 15.8 µM [inhibitor, partial curve, poor fit]
CSc1nc(N(CCO)CCO)c2sc3nc(-c4ccco4)c4c(c3c2n1)CCC4 14.1 µM [inhibitor, partial curve, poor fit]
COC(=O)Cc1ccc(NC(=S)N2CCN(c3ccccn3)CC2)cc1 28.2 µM [inhibitor, partial curve, poor fit]
O=C(Nc1nc2cc3c(cc2s1)OCCO3)C1=COCCO1 25.1 µM [inhibitor, single point]
C(=C\c1ccc2ccccc2n1)/c1ccccc1 22.4 µM [inhibitor, partial curve, poor fit]
FC(F)(F)c1cccc(NC(=S)N2CCCC2)c1 28.2 µM [inhibitor, single point]
Clc1ccccc1Nc1nnc(-c2ccncc2)s1 15.8 µM [inhibitor, partial curve, poor fit]
Cc1ccc(C(=O)Nc2ccc3c(c2)OCCO3)cc1 31.6 µM [inhibitor, partial curve, poor fit]
CCOc1cccc2c1N[C@@H](c1ccc(C(=O)O)cc1)[C@H]1CC=C[C@@H]21 39.8 µM [inhibitor, single point]
CC1CCCC(C)N1C(=O)COC(=O)/C=C/c1ccc(Br)o1 (configuration not stated) 31.6 µM [inhibitor, partial curve, poor fit]
COc1ccccc1N(CC(=O)NCc1ccco1)S(=O)(=O)c1ccc(C)cc1 20 µM [inhibitor, partial curve, poor fit]
C=C(C)C(=O)Nc1cccc(C2=NOC3(C2)C[C@@H](C(N)=O)N(C(=O)/C=C/CC)C3)c1 (some centres not stated) 3.55 µM [inhibitor, full curve, poor fit]
CC(=O)OCC1OC(n2cc(F)c(=O)[nH]c2=O)C(OC(C)=O)C1OC(C)=O (configuration not stated) 25.1 µM [inhibitor, partial curve, poor fit]
Cc1ccc(OCC(=O)Nc2cc(NC(=O)COc3ccc(C)c(C)c3)cc(C(=O)O)c2)cc1C 35.5 µM [inhibitor, single point]
CSc1ccccc1NC(=O)c1noc2c1CCC2 25.1 µM [inhibitor, single point]
O=C(COc1ccccc1)Nc1ccc(S(=O)(=O)NCc2ccco2)cc1 28.2 µM [inhibitor, partial curve, poor fit]
CCC(C)NC(=O)C(NS(=O)(=O)c1cccc2nsnc12)c1ccccc1 (configuration not stated) 25.1 µM [inhibitor, partial curve, poor fit]
O=C(O)c1cnn2c1C(=O)N(Cc1cccs1)CC2 11.2 µM [inhibitor, partial curve]
CN1CCN(CCC(=O)N2c3ccccc3Sc3ccc(C(F)(F)F)cc32)CC1 39.8 µM [inhibitor, single point]
CCOC(=O)C1CCN(C(=S)Nc2cccc(C)c2C)CC1 20 µM [inhibitor, partial curve, poor fit]
CC(=NNC(=S)N1CCCCC1)c1ccccn1 25.1 µM [inhibitor, partial curve, poor fit]
O=C(CN1C(=O)/C(=C2\SC(=S)N(CCS(=O)(=O)O)C2=O)c2ccccc21)Nc1cccc(Br)c1 10 µM [inhibitor, partial curve]
Cc1nc(S/C(=C\c2ccc(-c3ccc(C(=O)O)c(Cl)c3)o2)C(=O)O)n[nH]1 20 µM [inhibitor, partial curve, poor fit]
COc1cc(/C=N/NC(=O)C(=O)NCc2ccco2)cc(Cl)c1O 10 µM [inhibitor, partial curve, poor fit]
O=C(COC(=O)c1cc2c(s1)CCC2)Nc1ccc(F)cc1 22.4 µM [inhibitor, single point]
COc1ccc(-c2c(C(F)(F)F)[nH]n3c(=O)cc(-c4ccccc4)nc23)cc1 12.6 µM [inhibitor, partial curve]
COc1ccc(NC(=S)N(CCN(C)C)C(C)c2ccco2)cc1 (configuration not stated) 35.5 µM [inhibitor, single point]
Cc1nc(-c2ccc(C(=O)Nc3ccccc3F)cc2)cs1 17.8 µM [inhibitor, partial curve, poor fit]
O=C(O)c1ccc(/C=N/NC(=O)c2cc(-c3ccc4c5c(cccc35)CC4)n[nH]2)cc1 28.2 µM [inhibitor, single point]
O=C(O)C1=NN(c2cc(Cl)c(S(=O)(=O)O)cc2Cl)C(=O)C1 28.2 µM [inhibitor, partial curve, poor fit]
O=C(O)CSc1nc2ccc(NC(=O)COc3ccc(Cl)cc3)cc2s1 20 µM [inhibitor, partial curve, poor fit]
CN(C)c1ccc(Nc2nc(N)c3ccccc3n2)cc1 25.1 µM [inhibitor, partial curve, poor fit]

— PubChem BioAssay AID602233 (National Center for Advancing Translational Sciences (NCATS), 2012)
